Test results taken from patent US12479858B2, “Macrocyclic compounds as sting agonists and methods and uses thereof” (Lupin Limited, priority 2019, dated 2025).
Structures can show the parent of a compound that is named as a salt. Some of these results come from one statement about several compounds together. Some compounds share one range, which may span the group rather than tell each member.

Tests used:
Assay type in all cases: cell-based
mouse whole blood = assay: Cytokine (IFNβ) secretion in mouse whole blood in response to STING agonists; conditions: 1 μM concentration, 4 h time point
human whole blood = assay: Cytokine (IFNβ) secretion in human whole blood in response to STING agonists; conditions: 3 μM concentration, 5 h time point
Human STING = target: T1, Human STING (Homo sapiens, UniProt Q86WV6, G230A/H232R/R293Q/R71H); assay: Stimulation of human STING signaling in THP1 cell line (THP1-Blue ISG SEAP reporter); conditions: THP1-Blue ISG cells, SEAP activity, 18-20 hours; lower bound in nM, upper bound in micromolar
T1 construct: using human THP1-Blue™ ISG SEAP based reporter cell line (Invivogen); host or cells: THP1-Blue ISG cells (human monocytic THP-1 derived SEAP reporter line)
T1 sequence (Q86WV6 whole entry R71H/G230A/H232R/R293Q): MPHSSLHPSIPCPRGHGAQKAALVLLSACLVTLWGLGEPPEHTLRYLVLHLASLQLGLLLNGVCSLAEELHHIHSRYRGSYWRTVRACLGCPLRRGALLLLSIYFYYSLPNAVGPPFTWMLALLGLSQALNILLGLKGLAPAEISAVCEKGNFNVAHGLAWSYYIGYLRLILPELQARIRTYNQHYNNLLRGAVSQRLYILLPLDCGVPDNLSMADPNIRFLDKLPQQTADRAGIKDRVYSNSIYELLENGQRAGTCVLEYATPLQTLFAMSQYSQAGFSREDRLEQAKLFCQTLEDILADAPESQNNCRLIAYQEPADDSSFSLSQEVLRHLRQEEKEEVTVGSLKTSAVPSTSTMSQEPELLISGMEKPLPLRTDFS
Description: Biological Assay—Stimulation of Human STING Signaling in THP1 Cell Line
Compounds were tested for their STING activation potential using human THP1-Blue™ ISG SEAP based reporter cell line (Invivogen). Briefly, THP1-Blue ISG cells (100,000 cells/well) in 96 well plate were treated with varying concentrations of test and reference compounds and incubated at 37° C. with 5% CO2 for 18-20 hours. The control untreated cells were also set up. Post incubation, the cell supernatant was tested for SEAP (Secreted Embryonic Alkaline Phosphatase) activity using the QuantiBlue™ substrate reagent (Invivogen). The formation of blue coloured product was quantified by measuring absorbance at wavelength of 620 nm using PheraStar/Tecan reader. The average of duplicate readouts for each data point was plotted in GraphPad prism 6 against the concentration of test or reference compound to calculate EC50 value. The fold of SEAP induction or increase in luminescence at different data points was estimated against the un-stimulated cell control set.

| Structure (SMILES) | IFNβ secretion (mouse whole blood) [pg/mL] | IFNβ secretion (human whole blood) [pg/mL] | EC50 (Human STING) [nM] |
| --- | --- | --- | --- |
| CCn1nc(C)cc1C(=O)Nc1nc2cc(C(N)=O)cc3c2n1C/C=C/Cn1c(NC(=O)c2cc(C)nn2CC)nc2cc(C(=O)NCCCn4nn[nH]c4=O)cc(c21)OCCCO3 [Compound 10, (E)-1,15-bis(1-ethyl-3-methyl-1H-pyrazole-5-carboxamido)-N-(3-(5-oxo-4,5-dihydro-1H-tetrazol-1-yl)propyl)-8,9,16,19-tetrahydro-7H-6,10-dioxa-2,14,15a,19a-tetraazacyclopentadeca[3,2,1-cd:8,9,10-c′d′]diindene-4,12-dicarboxamide] | 200 to 1000 | 200 to 600 |  |
| CCn1nc(C)cc1C(=O)Nc1nc2cc(C(N)=O)cc3c2n1C/C=C/Cn1c(NC(=O)c2cc(C)nn2CC)nc2cc(C(=O)NCc4ncccc4C(=O)O)cc(c21)OCCCO3 [Compound 9, (E)-2-((4-carbamoyl-1,15-bis(1-ethyl-3-methyl-1H-pyrazole-5-carboxamido)-8,9,16,19-tetrahydro-7H-6,10-dioxa-2,14,15a,19a-tetraazacyclopentadeca[3,2,1-cd:8,9,10-c′d′]diindene-12-carboxamido)methyl)nicotinic acid] | 200 to 1000 | 200 to 600 |  |
| CCn1nc(C)cc1C(=O)Nc1nc2cc(C(N)=O)cc3c2n1C/C=C/Cn1c(NC(=O)c2cc(C)nn2CC)nc2cc(C(=O)NCCCn4cc(C(=O)O)cn4)cc(c21)OC[C@@H](N1C2CCC1COC2)CO3 [Compound 18, 1-(3-((8S,E)-8-(3-oxa-8-azabicyclo[3.2.1]octan-8-yl)-12-carbamoyl-1,15-bis(1-ethyl-3-methyl-1H-pyrazole-5-carboxamido)-8,9,16,19-tetrahydro-7H-6,10-dioxa-2,14,15a,19a-tetraazacyclopentadeca[3,2,1-cd:8,9,10-c′d′]diindene-4-carboxamido)propyl)-1H-pyrazole-4-carboxylic acid sodium salt] | 200 to 1000 | 200 to 600 |  |
| CCn1nc(C)cc1C(=O)Nc1nc2cc(C(N)=O)cc3c2n1C/C=C/Cn1c(NC(=O)c2cc(C)nn2CC)nc2cc(C(=O)NCCCc4nnn[nH]4)cc(c21)OCC(N1CCOCC1)CO3 (stereo not shown) [Compound 25, (E)-N-(3-(1H-tetrazol-5-yl)propyl)-1,15-bis(1-ethyl-3-methyl-1H-pyrazole-5-carboxamido)-8-morpholino-8,9,16,19-tetrahydro-7H-6,10-dioxa-2,14,15a,19a-tetraazacyclopentadeca[3,2,1-cd:8,9,10-c′d′]diindene-4,12-dicarboxamide] |  |  | 101 to 2500 |
| CCn1nc(C)cc1C(=O)Nc1nc2cc(C(N)=O)cc3c2n1C/C=C/Cn1c(NC(=O)c2cc(C)nn2CC)nc2cc(C(=O)N[C@H]4CC[C@H](C(=O)O)CC4)cc(c21)OC[C@H](N1C2CCC1COC2)CO3 [Compound 15, (1R,4R)-4-((8S,E)-8-(3-oxa-8-azabicyclo[3.2.1]octan-8-yl)-12-carbamoyl-1,15-bis(1-ethyl-3-methyl-1H-pyrazole-5-carboxamido)-8,9,16,19-tetrahydro-7H-6,10-dioxa-2,14,15a,19a-tetraazacyclopentadeca[3,2,1-cd:8,9,10-c′d′]diindene-4-carboxamido)cyclohexane-1-carboxylic acid sodium salt] |  |  | 101 to 2500 |
| CCn1nc(C)cc1C(=O)Nc1nc2cc(C(N)=O)cc3c2n1C/C=C/Cn1c(NC(=O)c2cc(C)nn2CC)nc2cc(C(=O)NCCCc4nnn[nH]4)cc(c21)OCCCO3 [Compound 3, (E)-N-(3-(1H-tetrazol-5-yl)propyl)-1,15-bis(1-ethyl-3-methyl-1H-pyrazole-5-carboxamido)-8,9,16,19-tetrahydro-7H-6,10-dioxa-2,14,15a,19a-tetraazacyclopentadeca[3,2,1-cd:8,9,10-c′d′]diindene-4,12-dicarboxamide sodium salt] | 200 to 1000 | 200 to 600 |  |
| CCn1nc(C)cc1C(=O)Nc1nc2cc(C(N)=O)cc3c2n1C/C=C/Cn1c(NC(=O)c2cc(C)nn2CC)nc2cc(C(=O)NCCCc4nnn[nH]4)cc(c21)OC[C@@H](N1C2CCC1COC2)CO3 [Compound 16, (8S,E)-N4-(3-(1H-tetrazol-5-yl)propyl)-8-(3-oxa-8-azabicyclo[3.2.1]octan-8-yl)-1,15-bis(1-ethyl-3-methyl-1H-pyrazole-5-carboxamido)-8,9,16,19-tetrahydro-7H-6,10-dioxa-2,14,15a,19a-tetraazacyclopentadeca[3,2,1-cd:8,9,10-c′d′]diindene-4,12-dicarboxamide sodium salt] | 200 to 1000 | 200 to 600 |  |
| CCn1nc(C)cc1C(=O)Nc1nc2cc(C(N)=O)cc3c2n1C/C=C/Cn1c(NC(=O)c2cc(C)nn2CC)nc2cc(C(=O)N[C@H]4CC[C@H](c5nnn[nH]5)CC4)cc(c21)OC[C@H](N1C2CCC1COC2)CO3 [Compound 13, (8R,E)-N4-((1R,4R)-4-(1H-tetrazol-5-yl)cyclohexyl)-8-(3-oxa-8-azabicyclo[3.2.1]octan-8-yl)-1,15-bis(1-ethyl-3-methyl-1H-pyrazole-5-carboxamido)-8,9,16,19-tetrahydro-7H-6,10-dioxa-2,14,15a,19a-tetraazacyclopentadeca[3,2,1-cd:8,9,10-c′d′]diindene-4,12-dicarboxamide sodium salt] |  |  | 101 to 2500 |
| CCn1nc(C)cc1C(=O)Nc1nc2cc(C(N)=O)cc3c2n1C/C=C/Cn1c(NC(=O)c2cc(C)nn2CC)nc2cc(C(=O)NCCc4nnn[nH]4)cc(c21)OCCCO3 [Compound 4, (E)-N-(2-(1H-tetrazol-5-yl)ethyl)-1,15-bis(1-ethyl-3-methyl-1H-pyrazole-5-carboxamido)-8,9,16,19-tetrahydro-7H-6,10-dioxa-2,14,15a,19a-tetraazacyclopentadeca[3,2,1-cd:8,9,10-c′d′]diindene-4,12-dicarboxamide] | 200 to 1000 | 200 to 600 |  |
| CCn1nc(C)cc1C(=O)Nc1nc2cc(C(N)=O)cc3c2n1C/C=C/Cn1c(NC(=O)c2cc(C)nn2CC)nc2cc(C(=O)N[C@H]4CC[C@H](c5nnn[nH]5)CC4)cc(c21)OCC(N1CCOCC1)CO3 (stereo partly drawn) [Compound 24, (E)-N-((1R,4R)-4-(1H-tetrazol-5-yl)cyclohexyl)-1,15-bis(1-ethyl-3-methyl-1H-pyrazole-5-carboxamido)-8-morpholino-8,9,16,19-tetrahydro-7H-6,10-dioxa-2,14,15a,19a-tetraazacyclopentadeca[3,2,1-cd:8,9,10-c′d′]diindene-4,12-dicarboxamide] |  |  | 101 to 2500 |
| CCn1nc(C)cc1C(=O)Nc1nc2cc(C(N)=O)cc3c2n1C/C=C/Cn1c(NC(=O)c2cc(C)nn2CC)nc2cc(C(=O)NCCCc4nnn[nH]4)cc(c21)OCC(N1CC2CCC(C1)O2)CO3 (stereo not shown) [Compound 21, (E)-N-(3-(1H-tetrazol-5-yl)propyl)-8-(8-oxa-3-azabicyclo[3.2.1]octan-3-yl)-1,15-bis(1-ethyl-3-methyl-1H-pyrazole-5-carboxamido)-8,9,16,19-tetrahydro-7H-6,10-dioxa-2,14,15a,19a-tetraazacyclopentadeca [3,2,1-cd:8,9,10-c′d′]diindene-4,12-dicarboxamide] |  |  | 101 to 2500 |
| CCn1nc(C)cc1C(=O)Nc1nc2cc(C(N)=O)cc3c2n1C/C=C/Cn1c(NC(=O)c2cc(C)nn2CC)nc2cc(C(=O)NCCCn4cc(C(=O)O)cn4)cc(c21)OCC(N1CCOCC1)CO3 (stereo not shown) [Compound 27, (E)-1-(3-(12-carbamoyl-1,15-bis(1-ethyl-3-methyl-1H-pyrazole-5-carboxamido)-8-morpholino-8,9,16,19-tetrahydro-7H-6,10-dioxa-2,14,15a,19a-tetraazacyclopentadeca[3,2,1-cd:8,9,10-c′d′]diindene-4-carboxamido)propyl)-1H-pyrazole-4-carboxylic acid] |  |  | 101 to 2500 |
| CCn1nc(C)cc1C(=O)Nc1nc2cc(C(N)=O)cc3c2n1C/C=C/Cn1c(NC(=O)c2cc(C)nn2CC)nc2cc(C(=O)NCCc4ccccc4C(=O)O)cc(c21)OCCCO3 [Compound 5, (E)-2-(2-(12-carbamoyl-1,15-bis(1-ethyl-3-methyl-1H-pyrazole-5-carboxamido)-8,9,16,19-tetrahydro-7H-6,10-dioxa-2,14,15a,19a-tetraazacyclopentadeca[3,2,1-cd:8,9,10-c′d′]diindene-4-carboxamido)ethyl)benzoic acid sodium salt] | 200 to 1000 | 200 to 600 |  |
| CCn1nc(C)cc1C(=O)Nc1nc2cc(C(N)=O)cc3c2n1C/C=C/Cn1c(NC(=O)c2cc(C)nn2CC)nc2cc(C(=O)NCCCc4noc(=O)[nH]4)cc(c21)OCCCO3 [Compound 11, (E)-1,15-bis(1-ethyl-3-methyl-1H-pyrazole-5-carboxamido)-N-(3-(5-oxo-4,5-dihydro-1,2,4-oxadiazol-3-yl)propyl)-8,9,16,19-tetrahydro-7H-6,10-dioxa-2,14,15a,19a-tetraazacyclopentadeca[3,2,1-cd:8,9,10-c′d′]diindene-4,12-dicarboxamide] | 200 to 1000 | 200 to 600 |  |
